{
  "source": "a collection of fitness landscapes (doi:10.1016/j.celrep.2020.107928)",
  "parents": {"B1": {"name": "Caulobacter ParB omega fusion; a variant is named by its letters at X, in order, B8GW30 (parent)", "chain": "MESVVVGEPGMSEGRRGLGRGLSALLGEVDAAPAQAPGEQLGGSREAPIEILQRNPDQPRRTFREEDLEDLSNSIREKGVLQPILVRPSPDTAGEYQIVAGERAWRAAQRAGLKTVPIMVRELDDLAVLEIGIIENVQRADLNVLEEALSYKVLMEKFERTQENIAQTIGKSXSHVANXMRLLXLPDEVQSYLVSGELTAXHARAIAAAADPVALAKQIIEGGLSVRETEALARKAPNLSAGKSKGGRPPRVKDTDTQALESDLSSVLGLDVSIDHRGSTGTLTITYATLEQLDDLCNRLTRGI"}},
  "note": "Over roughly 81,000 sequences, “one-hybrid fitness for binding parS DNA” has its median near -0.17; the highest 2% begin near 0.51. Some of the results follow.",
  "data": [
    {"variants_of": "B1", "assay": "one-hybrid fitness for binding parS DNA (scaled: cognate 1, non-cognate 0); higher = stronger binding", "conditions": "with parS DNA site", "summary_of_the_method": "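Caulobacter ParB libraries with four specificity codons randomised were screened by bacterial one-hybrid selection in the E. coli USO strain, using a HIS3 reporter whose site lies 19 bp from the promoter. Selection ran for 48 hours at 37°C on M9 lacking histidine, with 0.1 mM IPTG and 5 mM 3-AT. Plasmids were Illumina-sequenced before and after selection, three replicate libraries were pooled, and variants with under 10 reads were dropped. Fitness is the log change in each variant's read ratio to wild type, rescaled against the cognate and non-cognate sites.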", "values": [
      {"variant": "ERSM", "one-hybrid fitness for binding parS DNA": "≤ 0.2"},
      {"variant": "RPLW", "one-hybrid fitness for binding parS DNA": "≤ 0.2"},
      {"variant": "RWLV", "one-hybrid fitness for binding parS DNA": "≤ 0.2"},
      {"variant": "YKYS", "one-hybrid fitness for binding parS DNA": "≤ 0.2"},
      {"variant": "QSHD", "one-hybrid fitness for binding parS DNA": "≤ 0.2"},
      {"variant": "MWAY", "one-hybrid fitness for binding parS DNA": "≤ 0.2"},
      {"variant": "TTAH", "one-hybrid fitness for binding parS DNA": "≤ 0.2"},
      {"variant": "KEGY", "one-hybrid fitness for binding parS DNA": "≤ 0.2"},
      {"variant": "RSSW", "one-hybrid fitness for binding parS DNA": 0.223},
      {"variant": "PSLD", "one-hybrid fitness for binding parS DNA": "≤ 0.2"},
      {"variant": "LAEL", "one-hybrid fitness for binding parS DNA": "≤ 0.2"},
      {"variant": "PMLG", "one-hybrid fitness for binding parS DNA": "≤ 0.2"},
      {"variant": "QELD", "one-hybrid fitness for binding parS DNA": "≤ 0.2"},
      {"variant": "YNTM", "one-hybrid fitness for binding parS DNA": "≤ 0.2"},
      {"variant": "TTFD", "one-hybrid fitness for binding parS DNA": "≤ 0.2"},
      {"variant": "SGSF", "one-hybrid fitness for binding parS DNA": "≤ 0.2"},
      {"variant": "TQLK", "one-hybrid fitness for binding parS DNA": "≤ 0.2"},
      {"variant": "DDPC", "one-hybrid fitness for binding parS DNA": "≤ 0.2"},
      {"variant": "VCPR", "one-hybrid fitness for binding parS DNA": "≤ 0.2"},
      {"variant": "VCKR", "one-hybrid fitness for binding parS DNA": "≤ 0.2"},
      {"variant": "LNGM", "one-hybrid fitness for binding parS DNA": "≤ 0.2"},
      {"variant": "SLNT", "one-hybrid fitness for binding parS DNA": "≤ 0.2"},
      {"variant": "PETG", "one-hybrid fitness for binding parS DNA": "≤ 0.2"},
      {"variant": "CARM", "one-hybrid fitness for binding parS DNA": "≤ 0.2"},
      {"variant": "RGTY", "one-hybrid fitness for binding parS DNA": 0.28},
      {"variant": "WTPS", "one-hybrid fitness for binding parS DNA": "≤ 0.2"},
      {"variant": "DLDM", "one-hybrid fitness for binding parS DNA": "≤ 0.2"},
      {"variant": "RKRT", "one-hybrid fitness for binding parS DNA": 0.658},
      {"variant": "HGEV", "one-hybrid fitness for binding parS DNA": "≤ 0.2"},
      {"variant": "FRVC", "one-hybrid fitness for binding parS DNA": "≤ 0.2"},
      {"variant": "TDRQ", "one-hybrid fitness for binding parS DNA": "≤ 0.2"},
      {"variant": "HIIS", "one-hybrid fitness for binding parS DNA": "≤ 0.2"},
      {"variant": "PYWA", "one-hybrid fitness for binding parS DNA": "≤ 0.2"},
      {"variant": "TCWW", "one-hybrid fitness for binding parS DNA": 0.215},
      {"variant": "RRQQ", "one-hybrid fitness for binding parS DNA": "≤ 0.2"},
      {"variant": "NPFC", "one-hybrid fitness for binding parS DNA": "≤ 0.2"},
      {"variant": "TNFL", "one-hybrid fitness for binding parS DNA": "≤ 0.2"},
      {"variant": "RQKL", "one-hybrid fitness for binding parS DNA": "≤ 0.2"},
      {"variant": "GNKG", "one-hybrid fitness for binding parS DNA": "≤ 0.2"},
      {"variant": "EMGL", "one-hybrid fitness for binding parS DNA": "≤ 0.2"},
      {"variant": "AHPS", "one-hybrid fitness for binding parS DNA": "≤ 0.2"},
      {"variant": "QRWC", "one-hybrid fitness for binding parS DNA": "≤ 0.2"},
      {"variant": "QIAY", "one-hybrid fitness for binding parS DNA": "≤ 0.2"},
      {"variant": "MLNT", "one-hybrid fitness for binding parS DNA": "≤ 0.2"},
      {"variant": "ADPA", "one-hybrid fitness for binding parS DNA": "≤ 0.2"},
      {"variant": "QADC", "one-hybrid fitness for binding parS DNA": "≤ 0.2"},
      {"variant": "LEEI", "one-hybrid fitness for binding parS DNA": "≤ 0.2"},
      {"variant": "SKWD", "one-hybrid fitness for binding parS DNA": "≤ 0.2"},
      {"variant": "GSQA", "one-hybrid fitness for binding parS DNA": "≤ 0.2"},
      {"variant": "WCSK", "one-hybrid fitness for binding parS DNA": "≤ 0.2"},
      {"variant": "RPDR", "one-hybrid fitness for binding parS DNA": "≤ 0.2"},
      {"variant": "TWCM", "one-hybrid fitness for binding parS DNA": "≤ 0.2"},
      {"variant": "RDQN", "one-hybrid fitness for binding parS DNA": "≤ 0.2"},
      {"variant": "QSRP", "one-hybrid fitness for binding parS DNA": "≤ 0.2"},
      {"variant": "RDKN", "one-hybrid fitness for binding parS DNA": "≤ 0.2"},
      {"variant": "RNWR", "one-hybrid fitness for binding parS DNA": "≤ 0.2"},
      {"variant": "KGKQ", "one-hybrid fitness for binding parS DNA": "≤ 0.2"},
      {"variant": "SSYA", "one-hybrid fitness for binding parS DNA": "≤ 0.2"},
      {"variant": "PCFS", "one-hybrid fitness for binding parS DNA": "≤ 0.2"},
      {"variant": "VMGY", "one-hybrid fitness for binding parS DNA": "≤ 0.2"},
      {"variant": "EVSM", "one-hybrid fitness for binding parS DNA": "≤ 0.2"},
      {"variant": "AYAK", "one-hybrid fitness for binding parS DNA": "≤ 0.2"},
      {"variant": "YFRG", "one-hybrid fitness for binding parS DNA": "≤ 0.2"},
      {"variant": "ADRF", "one-hybrid fitness for binding parS DNA": "≤ 0.2"},
      {"variant": "TQCC", "one-hybrid fitness for binding parS DNA": "≤ 0.2"},
      {"variant": "SPPY", "one-hybrid fitness for binding parS DNA": "≤ 0.2"},
      {"variant": "PMMN", "one-hybrid fitness for binding parS DNA": "≤ 0.2"},
      {"variant": "MWYT", "one-hybrid fitness for binding parS DNA": "≤ 0.2"},
      {"variant": "AKAT", "one-hybrid fitness for binding parS DNA": "≤ 0.2"},
      {"variant": "KVTL", "one-hybrid fitness for binding parS DNA": "≤ 0.2"},
      {"variant": "DSTC", "one-hybrid fitness for binding parS DNA": "≤ 0.2"},
      {"variant": "QEYY", "one-hybrid fitness for binding parS DNA": "≤ 0.2"},
      {"variant": "RVWG", "one-hybrid fitness for binding parS DNA": 0.982},
      {"variant": "AIPW", "one-hybrid fitness for binding parS DNA": "≤ 0.2"},
      {"variant": "TAPP", "one-hybrid fitness for binding parS DNA": "≤ 0.2"},
      {"variant": "PWNY", "one-hybrid fitness for binding parS DNA": "≤ 0.2"},
      {"variant": "TAPI", "one-hybrid fitness for binding parS DNA": "≤ 0.2"},
      {"variant": "PVMN", "one-hybrid fitness for binding parS DNA": "≤ 0.2"},
      {"variant": "VSKH", "one-hybrid fitness for binding parS DNA": "≤ 0.2"},
      {"variant": "VRGM", "one-hybrid fitness for binding parS DNA": "≤ 0.2"},
      {"variant": "SRPP", "one-hybrid fitness for binding parS DNA": "≤ 0.2"},
      {"variant": "PHNW", "one-hybrid fitness for binding parS DNA": "≤ 0.2"},
      {"variant": "QIDG", "one-hybrid fitness for binding parS DNA": "≤ 0.2"},
      {"variant": "RIMY", "one-hybrid fitness for binding parS DNA": 0.483}
    ]}
  ]
}
